This is one part of the list. The full chains were built here from the parent and the listed change. Inactive controls read about 0.05.
B1: TEV protease; numbered along this chain (parent)
chain: MGESLFKGPRDYNPISSSICHLTNESDGHTTSLYGIGFGPFIITNKHLFRRNNGTLVVQSLHGVFKVKDTTTLQQHLVDGRDMIIIRMPKDFPPFPQKLKFREPQREERICLVTTNFQTKSMSSMVSDTSCTFPSGDGIFWKHWIQTKDGQCGSPLVSTRDGFIVGIHSASNFTNTNNYFTSVPKNFMELLTNQEAQQWVSGWRLNADSVLWGGHKVFMVKPEEPFQPVKEATQL

Variants of: B1
Experiment: raw area under fraction-flipped curve 0-4 h after induction (AUC4h, not background-subtracted), DNA-recorder readout of cleavage of the substrate (dimensionless); higher = more cleavage of the substrate by the protease variant
Conditions: temperature: 34 °C; time window: 0-4 h after rhamnose induction
Procedure: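 In vivo DNA recorder in E. coli TOP10(DE3) ΔrhaA at 34 °C. Each TEVp single-site mutant (parent TEVp 0) is paired with a single-site variant of the 7-mer TEVs (canonical ENLYFQ|S). The substrate sits between flexible linkers in a Bxb1-sfGFP-TEVs-SsrA fusion, so cleavage stabilises Bxb1 and speeds flipping of a recombination array, read by NGS. The value is the raw area under the fraction-flipped curve over 0-4 h after rhamnose induction (AUC4h), with ≥20 reads per time point. It is not background-subtracted; inactive controls average about 0.047.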
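Further: Bxb1 expression induced with 0.2% (w/v) L-rhamnose at OD600 near 0.5, cultures sampled hourly, flipped fraction per protease–substrate barcode pair counted by paired-end Illumina sequencing.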

Variant | area with substrate ENLYFQA | area with substrate ENLYFQC | area with substrate ENLYFQF | area with substrate ENLYFQI | area with substrate ENLYFQK | area with substrate ENLYFQL | area with substrate ENLYFQM | area with substrate ENLYFQN | area with substrate ENLYFQP | area with substrate ENLYFQS | area with substrate ENLYFQT | area with substrate ENLYFQY | area with substrate ENLYFQD | area with substrate ENLYFQH | area with substrate ENLYFQQ | area with substrate ENLYFQR | area with substrate ENLYFQV | area with substrate ENLYFQW | area with substrate ENLYFQG | area with substrate ENLYFQE
MGESLFKGPRDYNPISSSICHLTNESDGHTTSLYGIGFGPFIITNKHLFRRNNGTLVVQSLHGVFKVKDTTTLQQHLVDGRDMIIIRMPKDFPPFPQKLKFREPQREERICLVTTCFQTKSMSSMVSDTSCTFPSGDGIFWKHWIQTKDGQCGSPLVSTRDGFIVGIHSASNFTNTNNYFTSVPKNFMELLTNQEAQQWVSGWRLNADSVLWGGHKVFMVKPEEPFQPVKEATQL [N116C] | 0.0611 | 0.0943 | 0.0734 | 0.0548 | 0.0527 | 0.059 | 0.0891 | 0.0783 | 0.0455 | 0.0982 | 0.0487 | 0.116 |  |  |  |  |  |  |  | 
MGESLFKGPRDYNPISSSICHLTNESDGHTTSLYGIGFGPFIITNKHLFRRNNGTLVVQSLHGVFKVKDTTTLQQHLVDGRDMIIIRMPKDFPPFPQKLKFREPQREERICLVTTNLQTKSMSSMVSDTSCTFPSGDGIFWKHWIQTKDGQCGSPLVSTRDGFIVGIHSASNFTNTNNYFTSVPKNFMELLTNQEAQQWVSGWRLNADSVLWGGHKVFMVKPEEPFQPVKEATQL [F117L] | 0.101 | 0.149 |  |  | 0.0757 | 0.0524 |  | 0.0746 | 0.0835 | 0.102 | 0.0555 |  | 0.0884 | 0.088 | 0.0946 | 0.0489 | 0.0552 | 0.0624 |  | 
MGESLFKGPRDYNPISSSICHLTNESDGHTTSLYGIGFGPFIITNKHLFRRNNGTLVVQSLHGVFKVKDTTTLQQHLVDGRDMIIIRMPKDFPPFPQKLKFREPQREERICLVTTNVQTKSMSSMVSDTSCTFPSGDGIFWKHWIQTKDGQCGSPLVSTRDGFIVGIHSASNFTNTNNYFTSVPKNFMELLTNQEAQQWVSGWRLNADSVLWGGHKVFMVKPEEPFQPVKEATQL [F117V] | 0.0879 |  |  |  |  | 0.0371 | 0.0821 | 0.0889 | 0.0778 | 0.0999 | 0.0667 | 0.0751 | 0.0659 | 0.0778 |  | 0.0494 | 0.0617 | 0.0706 | 0.0906 | 
MGESLFKGPRDYNPISSSICHLTNESDGHTTSLYGIGFGPFIITNKHLFRRNNGTLVVQSLHGVFKVKDTTTLQQHLVDGRDMIIIRMPKDFPPFPQKLKFREPQREERICLVTTNFQMKSMSSMVSDTSCTFPSGDGIFWKHWIQTKDGQCGSPLVSTRDGFIVGIHSASNFTNTNNYFTSVPKNFMELLTNQEAQQWVSGWRLNADSVLWGGHKVFMVKPEEPFQPVKEATQL [T119M] | 0.0807 |  |  |  |  |  | 0.111 | 0.0754 |  | 0.0955 | 0.0494 |  | 0.0902 |  | 0.0737 |  | 0.0596 |  | 0.0814 | 
MGESLFKGPRDYNPISSSICHLTNESDGHTTSLYGIGFGPFIITNKHLFRRNNGTLVVQSLHGVFKVKDTTTLQQHLVDGRDMIIIRMPKDFPPFPQKLKFREPQREERICLVTTNFQTDSMSSMVSDTSCTFPSGDGIFWKHWIQTKDGQCGSPLVSTRDGFIVGIHSASNFTNTNNYFTSVPKNFMELLTNQEAQQWVSGWRLNADSVLWGGHKVFMVKPEEPFQPVKEATQL [K120D] | 0.0875 |  |  | 0.0609 | 0.0528 | 0.0567 | 0.0745 | 0.0752 |  | 0.0922 | 0.0668 | 0.0728 |  |  | 0.078 | 0.0603 |  |  | 0.0915 | 
MGESLFKGPRDYNPISSSICHLTNESDGHTTSLYGIGFGPFIITNKHLFRRNNGTLVVQSLHGVFKVKDTTTLQQHLVDGRDMIIIRMPKDFPPFPQKLKFREPQREERICLVTTNFQTISMSSMVSDTSCTFPSGDGIFWKHWIQTKDGQCGSPLVSTRDGFIVGIHSASNFTNTNNYFTSVPKNFMELLTNQEAQQWVSGWRLNADSVLWGGHKVFMVKPEEPFQPVKEATQL [K120I] | 0.101 |  |  | 0.0723 |  | 0.0874 | 0.0819 | 0.065 |  | 0.092 | 0.0494 |  | 0.0728 | 0.0756 |  | 0.0485 |  | 0.0821 | 0.075 | 
MGESLFKGPRDYNPISSSICHLTNESDGHTTSLYGIGFGPFIITNKHLFRRNNGTLVVQSLHGVFKVKDTTTLQQHLVDGRDMIIIRMPKDFPPFPQKLKFREPQREERICLVTTNFQTNSMSSMVSDTSCTFPSGDGIFWKHWIQTKDGQCGSPLVSTRDGFIVGIHSASNFTNTNNYFTSVPKNFMELLTNQEAQQWVSGWRLNADSVLWGGHKVFMVKPEEPFQPVKEATQL [K120N] | 0.1 | 0.0845 |  | 0.0538 |  | 0.0447 |  | 0.0716 |  | 0.0966 | 0.0635 | 0.0825 |  | 0.0663 |  | 0.056 |  |  |  | 0.0653
MGESLFKGPRDYNPISSSICHLTNESDGHTTSLYGIGFGPFIITNKHLFRRNNGTLVVQSLHGVFKVKDTTTLQQHLVDGRDMIIIRMPKDFPPFPQKLKFREPQREERICLVTTNFQTVSMSSMVSDTSCTFPSGDGIFWKHWIQTKDGQCGSPLVSTRDGFIVGIHSASNFTNTNNYFTSVPKNFMELLTNQEAQQWVSGWRLNADSVLWGGHKVFMVKPEEPFQPVKEATQL [K120V] | 0.0968 |  |  | 0.0589 | 0.0679 |  | 0.0874 | 0.0882 | 0.0897 | 0.0998 | 0.0731 |  |  |  | 0.0593 | 0.0438 | 0.0058 |  | 0.0911 | 
MGESLFKGPRDYNPISSSICHLTNESDGHTTSLYGIGFGPFIITNKHLFRRNNGTLVVQSLHGVFKVKDTTTLQQHLVDGRDMIIIRMPKDFPPFPQKLKFREPQREERICLVTTNFQTKQMSSMVSDTSCTFPSGDGIFWKHWIQTKDGQCGSPLVSTRDGFIVGIHSASNFTNTNNYFTSVPKNFMELLTNQEAQQWVSGWRLNADSVLWGGHKVFMVKPEEPFQPVKEATQL [S121Q] | 0.107 | 0.128 | 0.081 | 0.0633 | 0.0489 | 0.0611 | 0.104 |  |  | 0.106 | 0.0699 | 0.0913 |  |  |  | 0.0474 | 0.0648 | 0.0606 | 0.0983 | 0.0865
MGESLFKGPRDYNPISSSICHLTNESDGHTTSLYGIGFGPFIITNKHLFRRNNGTLVVQSLHGVFKVKDTTTLQQHLVDGRDMIIIRMPKDFPPFPQKLKFREPQREERICLVTTNFQTKSMWSMVSDTSCTFPSGDGIFWKHWIQTKDGQCGSPLVSTRDGFIVGIHSASNFTNTNNYFTSVPKNFMELLTNQEAQQWVSGWRLNADSVLWGGHKVFMVKPEEPFQPVKEATQL [S123W] | 0.0976 | 0.11 | 0.0446 | 0.0545 | 0.0653 | 0.0551 | 0.091 | 0.144 | 0.0554 | 0.106 | 0.0659 | 0.0805 | 0.0758 | 0.0597 | 0.0763 | 0.0633 | 0.0643 | 0.067 | 0.0977 | 0.0693

— the supplement of paper PMC12217912
